# Reference: PubChem BioAssay AID1745853 (National Center for Advancing Translational Sciences (NCATS), 2022)
# Some of the results follow. Shown are side measurements of this screen, not its main read-out; they come without a call. Peptide text beside a SMILES is read from it. * marks the point of attachment. AFC = O=c1cc(C(F)(F)F)c2ccc(N*)cc2o1
# What was measured:
# Assay in all cases: Primary Screen for Target Class Profiling of Small Molecule Inhibitors of Methyltransferases
# [1] = biological target: Glycine N-methyltransferase (Homo sapiens) (UniProt Q14749); settings: purified enzyme, MTase-Glo SAH luminescence; measured here: GNMT inhibition; at 40 µM; stronger effect = lower value
# Outline: (§1)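 Each enzyme was reacted with SAM and its substrate, with compounds tested once at 40 uM; SAH formed was read by MTase-Glo luminescence.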
# [2] = biological target: Guanidinoacetate N-methyltransferase (Homo sapiens) (UniProt Q14353); settings: purified enzyme, MTase-Glo SAH luminescence; measured here: GAMT inhibition; at 40 µM; stronger effect = lower value
# Outline: as §1
# [3] = biological target: Histamine N-methyltransferase (Homo sapiens) (UniProt P50135); settings: purified enzyme, MTase-Glo SAH luminescence; measured here: HNMT inhibition; at 40 µM; stronger effect = lower value
# Outline: as §1
# [4] = biological target: Nicotinamide N-methyltransferase (Homo sapiens) (UniProt P40261); settings: purified enzyme, MTase-Glo SAH luminescence; measured here: NNMT inhibition; at 40 µM; stronger effect = lower value
# Outline: as §1
# [5] = biological target: Phenylethanolamine N-methyltransferase (Homo sapiens) (UniProt P11086); settings: purified enzyme, MTase-Glo SAH luminescence; measured here: PNMT inhibition; at 40 µM; stronger effect = lower value
# Outline: as §1
# On the % scale 0 is the no-effect control and ±100 the full control effect.
SMILES,"activity change, negative = inhibition [1] [%]","activity change, negative = inhibition [2] [%]","activity change, negative = inhibition [3] [%]","activity change, negative = inhibition [4] [%]","activity change, negative = inhibition [5] [%]"
Cc1ccc(C(N)=O)cc1-c1cc(NCc2cccnc2)nc2[nH]ccc12,-22.5,-10.5,-26.8,-25.4,-37.9
Cn1c(=O)c2c(ncn2CC(=O)N2CCC(Cc3nc(C4CCOCC4)no3)CC2)n(C)c1=O,-4.25,-4.21,0.227,-6.55,-1.9
CCOc1ccc(N2C(=O)c3cc4sc(CC)cc4n3CC2(C)C(=O)NC2CCCCC2)cc1 (stereo unspecified),1.6,2.67,8.63,8.37,0.101
C=C[C@H]1[C@H](O[C@@H]2O[C@H](CO)[C@@H](O)[C@H](O)[C@H]2O)OC=C(C(=O)OC)[C@H]1C[C@@H]1c2cc(O)c(O)cc2CCN1C(C)=O,-0.386,-2.5,4.8,-15.5,-11
COc1ccc2c(c1O[C@H]1CCNC1)CCC2,3.31,7.58,-24.2,-9.02,5.68
O=S(=O)(c1ccccc1)c1nnn2c1nc(N1CCCCC1)c1ccccc12,-4.75,-7.81,-4.4,-11.7,-4.92
O=C1CCC[C@@H]2[C@@H]3CCC[N@+]4([O-])CCC[C@H](CN12)[C@H]34,,6.07,,-8.72,7.3
COc1cc(N2CCOCC2)ccc1NC(=O)c1csc(-c2cccnc2)n1,-13.6,-6.82,3.47,-21.7,-5.23
CC12CCC3c4ccc(O)cc4CCC3C1CCC2OC1OC(C(=O)O)C(O)C(O)C1O (stereo unspecified),-5.49,-1.54,10.6,-9.71,1.48
Cc1nn(CC(=O)NC(C)Cc2cnccn2)c(=O)n1CCc1ccccc1 (stereo unspecified),-3.04,-6.43,-1.97,-10.8,-4.12
COc1ccc(C[C@@H]2NC(=O)[C@@H]3C[C@@H](NC(=O)Nc4cccc(SC)c4)CCN3C2=O)cc1,-1.82,-5.9,0.274,-8.67,-2.78
COC(=O)c1cc2n(n1)CC(C)(C(=O)NC1CCCCCC1)N(Cc1cccc(OC)c1)C2=O (stereo unspecified),-7.04,-3.63,-10.7,-9.3,-3.65
COCCCN1C(=O)c2nc3ccccc3n2CC1(C)C(=O)NC1CCCC(C)C1C (stereo unspecified),5.36,4.24,8.22,9.01,4.06
NCCc1ccc(O)c(O)c1,-33.6,14.2,-86.3,-0.359,-29.7
O=C(CSCC1CC1)N1CCC2(CCC(=O)N(CCCn3ccnc3)C2)CC1,-7.91,-8.5,-7.3,-11.1,-0.161
COc1ccc(-c2cc3n(n2)CC(C)(C(=O)NC2CCCCC2)N(Cc2cccnc2)C3=O)cc1 (stereo unspecified),0.755,0,2.1,2.61,-3.18
Cc1ccc(S(=O)(=O)c2nnn3c2nc(N2CCOCC2)c2cc(Cl)ccc23)cc1C,-9.4,2.88,-2.36,1.28,-9.13
COc1ccccc1CN1C(=O)c2cc(C(C)(C)C)nn2CC1(C)C(=O)NC1CCCCC1 (stereo unspecified),0.238,3.31,5.04,-1.3,1.77
CCn1c(=O)n(CC)c2cc(S(=O)(=O)Nc3cccc(C)c3)ccc21,10.5,0.673,10.3,0.755,9.5

SMILES,"activity change, negative = inhibition [1] [%]","activity change, negative = inhibition [2] [%]","activity change, negative = inhibition [3] [%]","activity change, negative = inhibition [4] [%]","activity change, negative = inhibition [5] [%]"
Cc1cc(F)ccc1C(=O)N1CCn2nc(Cc3ccccc3)cc2C1,-10.3,-4.07,-10.3,-13.6,-9.3
CC(C)OCCCNC(=O)C1(C)Cn2cnc(C(=O)Nc3cccc(Cl)c3)c2C(=O)N1C1CC1 (stereo unspecified),0.481,0,10.5,6.08,3.72
CC(=O)N[C@@H](Cc1c[nH]c2ccccc12)C(=O)N[C@@H](CCC(=O)O)C(=O)N[C@@H](Cc1cnc[nH]1)C(=O)N[C@@H](CC(=O)O)C(=O)Nc1ccc2c(C(F)(F)F)cc(=O)oc2c1 (Ac-WEHD-{AFC}),5.2,5.07,8.55,-8.77,3.48
Cc1nn(-c2ccccn2)c(C)c1[C@@H]1C=C[C@@H](NC(=O)NC(C)C)C1,-5.84,-5.28,-2.53,-6.33,-2.63
Cc1ccccc1C(=O)NCc1cccnc1Oc1cccc(C(F)(F)F)c1,3.55,0.431,0.411,-1.84,-16
CCn1cnnc1CC1CCN(C(=O)c2nccc3ccccc23)C1 (stereo unspecified),-2.12,-0.088,-0.697,-9.79,11.7
C=C(C(=O)O)C1CC2=C(C)C(=O)CC2C(C)CC1O (stereo unspecified),-0.093,3.12,11,-5.09,7.95
O=C1NCCOCCCN(C(=O)C2(c3ccccc3)CC2)[C@H]2CCCC[C@@H]12,-3.87,-7.21,-2.73,-8.32,-0.321
C=C1CC[C@@H](O)[C@]2(C)CC[C@H]3C(=C)C(=O)O[C@@H]3[C@@H]12,-1.56,-3.01,5.05,-9.32,-0.235
C[C@@H]1O[C@@H](O[C@H]2[C@@H]3C=CO[C@@H](O[C@@H]4O[C@H](CO)[C@@H](O)[C@H](O)[C@H]4O)[C@@H]3[C@@]3(CO)O[C@@H]23)[C@H](O)[C@H](OC(=O)/C=C/c2ccccc2)[C@H]1O,-0.668,-2.8,3.71,-11.7,-0.973
C[C@H](Cc1ccc(O)c(O)c1)[C@@H](C)Cc1ccc(O)c(O)c1,-93.7,-18.7,-23.6,-18.2,-13.1
CC(C)NC(=O)c1ccnc(-c2ccccc2S(=O)(=O)NC(C)(C)C)c1,-1.11,-1.89,-0.727,-7.37,-6.21
CC(=O)SCC(=O)c1ccc(NS(=O)(=O)c2ccc(OCCCN(C)C)cc2)nc1,-2.68,-8.04,-11.4,-17.7,-5.57
O=C(COC(=O)C(Cc1c[nH]c2ccccc12)NC(=O)c1ccc(Cl)cc1)c1ccc(Br)cc1 (stereo unspecified),0.487,4.29,-3.23,-11.3,-6.88
COC(=O)c1ncn2c1C(=O)N(C(C)c1ccccc1)C(C)(C(=O)NC1CCCCCC1)C2 (stereo unspecified),7.84,1.26,3.82,6.93,5.38
CC(C)CCn1c(=O)c2ccccc2n2c(=O)n(Cc3ccc(Cl)cc3)nc12,1.61,0.763,5.49,-4.86,2.87
CCOC(=O)c1c2c3c(cccc3[nH]c1=O)C(=O)c1ccccc1-2,,-3.49,,-21.2,-2.84
CCCn1c(=O)c2ccc(C(=O)NC3CCCC3)cc2n2c(=O)n(CC(=O)c3ccc(F)cc3F)nc12,-1.96,1.04,-2.97,-4.47,-4.18
